Results taken from publication PMC5700166.
This is a selection; strong and weak results do not stand in their true shares. The list includes weakly bound sequences.

Key:
Experiment in all cases: protein-binding microarray (PBM)
Details in all cases: PBM: ~300 nM protein, 6 mM HEPES pH 7.8, 80 mM KCl, 0.5 mM EDTA, 0.5 mM EGTA, 6% glycerol, 35 ng/ul poly-dIdC, 1% milk, 1 h, room temperature; Ap Aiptasia and Nv Nematostella (sea anemones) / Co Capsaspora / Aq Amphimedon (sponge) / Dm Drosophila / Hu human; RHD is the Rel homology domain; high values mean tight binding; most listed sequences are background and not binding sites; double strand, one strand shown
GST-Ap-NF-kB RHD = molecular target: T1, GST-Ap-NF-kB RHD (UniProt A0A913YAJ5)
T1 sequence: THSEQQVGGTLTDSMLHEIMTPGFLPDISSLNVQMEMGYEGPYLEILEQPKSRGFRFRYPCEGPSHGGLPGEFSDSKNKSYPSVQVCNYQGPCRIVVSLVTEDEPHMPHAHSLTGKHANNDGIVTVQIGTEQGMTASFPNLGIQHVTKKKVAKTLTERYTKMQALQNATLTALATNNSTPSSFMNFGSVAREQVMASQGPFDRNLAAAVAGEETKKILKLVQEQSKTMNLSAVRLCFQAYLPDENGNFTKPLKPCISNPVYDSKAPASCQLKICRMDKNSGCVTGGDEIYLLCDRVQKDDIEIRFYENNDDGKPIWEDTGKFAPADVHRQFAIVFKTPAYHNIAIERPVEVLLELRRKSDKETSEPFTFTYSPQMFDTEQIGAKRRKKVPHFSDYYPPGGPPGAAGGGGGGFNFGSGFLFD

[1] = molecular target: T2, GST-Nv-NF-kB (Cys allele) (UniProt E5G601)
T2 sequence: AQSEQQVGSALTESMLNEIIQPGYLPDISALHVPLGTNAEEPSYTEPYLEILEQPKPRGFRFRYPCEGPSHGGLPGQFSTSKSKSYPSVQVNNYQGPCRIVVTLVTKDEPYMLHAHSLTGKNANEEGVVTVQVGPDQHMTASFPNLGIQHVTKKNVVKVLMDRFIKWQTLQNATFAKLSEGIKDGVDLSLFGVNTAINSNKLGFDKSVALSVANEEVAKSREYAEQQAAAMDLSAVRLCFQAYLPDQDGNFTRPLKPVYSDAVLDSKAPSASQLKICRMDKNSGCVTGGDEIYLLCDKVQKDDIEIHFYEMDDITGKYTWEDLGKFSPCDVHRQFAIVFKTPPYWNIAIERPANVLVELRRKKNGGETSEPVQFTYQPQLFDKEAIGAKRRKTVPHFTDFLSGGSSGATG

GST-Co-NF-kB = molecular target: T3, GST-Co-NF-kB (UniProt F1ARL5)
T3 sequence: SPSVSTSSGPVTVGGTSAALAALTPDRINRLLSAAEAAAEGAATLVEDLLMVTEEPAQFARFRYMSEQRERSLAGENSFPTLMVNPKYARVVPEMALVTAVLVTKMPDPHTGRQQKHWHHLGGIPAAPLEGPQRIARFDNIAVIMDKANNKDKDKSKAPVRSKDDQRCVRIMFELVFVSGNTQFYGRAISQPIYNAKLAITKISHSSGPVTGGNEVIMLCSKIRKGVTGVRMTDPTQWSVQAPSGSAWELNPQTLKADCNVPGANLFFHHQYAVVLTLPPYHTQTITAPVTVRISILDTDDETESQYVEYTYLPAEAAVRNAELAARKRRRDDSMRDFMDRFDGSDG

GST-Dm-Relish = molecular target: T4, GST-Dm-Relish (UniProt Q94527)
T4 sequence: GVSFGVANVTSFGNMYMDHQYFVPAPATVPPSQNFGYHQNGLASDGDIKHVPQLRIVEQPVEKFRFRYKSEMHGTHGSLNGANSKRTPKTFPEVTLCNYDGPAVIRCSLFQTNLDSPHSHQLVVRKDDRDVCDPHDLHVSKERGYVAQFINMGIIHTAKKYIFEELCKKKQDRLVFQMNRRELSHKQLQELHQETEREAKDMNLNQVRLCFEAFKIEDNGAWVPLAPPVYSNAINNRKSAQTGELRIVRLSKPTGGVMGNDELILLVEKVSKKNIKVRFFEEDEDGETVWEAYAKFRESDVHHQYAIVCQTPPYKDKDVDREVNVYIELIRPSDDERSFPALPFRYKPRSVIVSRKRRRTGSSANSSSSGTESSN

GST-Aq-NF-kB = molecular target: T5, GST-Aq-NF-kB (UniProt A9Y5G7)
T5 sequence: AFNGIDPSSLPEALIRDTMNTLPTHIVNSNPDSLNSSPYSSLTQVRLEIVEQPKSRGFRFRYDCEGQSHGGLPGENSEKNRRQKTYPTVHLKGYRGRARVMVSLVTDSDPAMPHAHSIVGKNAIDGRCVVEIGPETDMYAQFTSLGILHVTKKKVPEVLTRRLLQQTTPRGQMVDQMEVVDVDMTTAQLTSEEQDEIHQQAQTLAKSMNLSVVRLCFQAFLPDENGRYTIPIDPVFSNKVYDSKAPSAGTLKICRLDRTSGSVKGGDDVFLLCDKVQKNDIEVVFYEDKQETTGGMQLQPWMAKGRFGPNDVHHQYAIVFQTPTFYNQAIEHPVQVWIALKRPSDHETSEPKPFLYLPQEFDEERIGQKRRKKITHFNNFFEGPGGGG

CCGATTAACATCAGCGTTTGGACTGATGTTAATCGGGTCTTGATTCGCTTGACGCTGCTG
binding signal (GST-Ap-NF-kB RHD): -0.418 z-score | binding signal [1]: -0.275 z-score | binding signal (GST-Co-NF-kB): -0.202 z-score | binding signal (GST-Dm-Relish): -0.484 z-score | binding signal (GST-Aq-NF-kB): -0.379 z-score

CCGATTAACATCACGGCATGTGTTGATGTTAATCGGGTCTTGATTCGCTTGACGCTGCTG
binding signal (GST-Ap-NF-kB RHD): -0.428 z-score | binding signal [1]: -0.267 z-score | binding signal (GST-Co-NF-kB): -0.0449 z-score | binding signal (GST-Dm-Relish): 0.0402 z-score | binding signal (GST-Aq-NF-kB): -0.37 z-score

CCGATTAACATCATATTGTGAGATGATGTTAATCGGGTCTTGATTCGCTTGACGCTGCTG
binding signal (GST-Ap-NF-kB RHD): 0.365 z-score | binding signal [1]: 0.0239 z-score | binding signal (GST-Co-NF-kB): -0.0999 z-score | binding signal (GST-Dm-Relish): -0.603 z-score | binding signal (GST-Aq-NF-kB): -0.132 z-score

CCGATTAACATCAAGATTTTCCATGATGTTAATCGGGTCTTGATTCGCTTGACGCTGCTG
binding signal (GST-Ap-NF-kB RHD): -0.166 z-score | binding signal [1]: 0.111 z-score | binding signal (GST-Co-NF-kB): -0.121 z-score | binding signal (GST-Dm-Relish): -0.151 z-score | binding signal (GST-Aq-NF-kB): 0.195 z-score

CCGATTAACATCATTTGGACTTATGATGTTAATCGGGTCTTGATTCGCTTGACGCTGCTG
binding signal (GST-Ap-NF-kB RHD): -0.69 z-score | binding signal [1]: -0.835 z-score | binding signal (GST-Co-NF-kB): -0.462 z-score | binding signal (GST-Dm-Relish): -0.346 z-score | binding signal (GST-Aq-NF-kB): 0.0798 z-score

CCGATTAACATCATTTTACCTTGTGATGTTAATCGGGTCTTGATTCGCTTGACGCTGCTG
binding signal (GST-Ap-NF-kB RHD): 0.431 z-score | binding signal [1]: 0.932 z-score | binding signal (GST-Co-NF-kB): 0.859 z-score | binding signal (GST-Dm-Relish): 0.549 z-score | binding signal (GST-Aq-NF-kB): 0.232 z-score

CCGATTAACATCACCGAACGCTTTGATGTTAATCGGGTCTTGATTCGCTTGACGCTGCTG
binding signal (GST-Ap-NF-kB RHD): 0.441 z-score | binding signal [1]: -0.507 z-score | binding signal (GST-Co-NF-kB): -0.217 z-score | binding signal (GST-Dm-Relish): 0.729 z-score | binding signal (GST-Aq-NF-kB): 0.0848 z-score

CCGATTAACATCAAAATTCCTACTGATGTTAATCGGGTCTTGATTCGCTTGACGCTGCTG
binding signal (GST-Ap-NF-kB RHD): 0.219 z-score | binding signal [1]: 0.16 z-score | binding signal (GST-Co-NF-kB): 0.866 z-score | binding signal (GST-Dm-Relish): 0.501 z-score | binding signal (GST-Aq-NF-kB): 0.353 z-score

CCGATTAACATCACGATTCGATGTGATGTTAATCGGGTCTTGATTCGCTTGACGCTGCTG
binding signal (GST-Ap-NF-kB RHD): -1.49 z-score | binding signal [1]: -0.614 z-score | binding signal (GST-Co-NF-kB): -0.838 z-score | binding signal (GST-Dm-Relish): -0.109 z-score | binding signal (GST-Aq-NF-kB): -0.732 z-score

CCGATTAACATCACATTTAGGACTGATGTTAATCGGGTCTTGATTCGCTTGACGCTGCTG
binding signal (GST-Ap-NF-kB RHD): -0.583 z-score | binding signal [1]: 0.246 z-score | binding signal (GST-Co-NF-kB): -0.33 z-score | binding signal (GST-Dm-Relish): 0.456 z-score | binding signal (GST-Aq-NF-kB): -0.0522 z-score

CCGATTAACATCATAAGTGGCGTTGATGTTAATCGGGTCTTGATTCGCTTGACGCTGCTG
binding signal (GST-Ap-NF-kB RHD): -0.092 z-score | binding signal [1]: -0.554 z-score | binding signal (GST-Co-NF-kB): -0.381 z-score | binding signal (GST-Dm-Relish): -0.0624 z-score | binding signal (GST-Aq-NF-kB): -0.264 z-score
